{
  "sequences": {"note": "Sequences of proteins named here, by UniProt entry; tags and fusion partners are left off.", "UniProt P84092": "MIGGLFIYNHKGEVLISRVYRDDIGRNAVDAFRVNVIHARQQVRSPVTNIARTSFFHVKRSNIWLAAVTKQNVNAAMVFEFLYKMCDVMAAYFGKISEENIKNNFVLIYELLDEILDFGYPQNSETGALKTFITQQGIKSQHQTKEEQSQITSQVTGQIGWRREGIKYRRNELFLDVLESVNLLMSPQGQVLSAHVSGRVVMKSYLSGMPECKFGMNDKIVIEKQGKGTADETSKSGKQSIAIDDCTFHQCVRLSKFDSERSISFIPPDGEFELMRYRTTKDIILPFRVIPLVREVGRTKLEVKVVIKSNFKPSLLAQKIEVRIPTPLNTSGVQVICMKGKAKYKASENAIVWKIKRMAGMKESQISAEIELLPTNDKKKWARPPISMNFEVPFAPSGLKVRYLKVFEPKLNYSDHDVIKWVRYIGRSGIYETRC"},
  "source": "paper PMC3576711",
  "key": {"[1]": {"molecular_target": "T1, UNC93B1-Y539A, C-terminal 3x FLAG tag (HEK293T) (mouse) (UniProt Q8VCW4)", "T1 sequence": "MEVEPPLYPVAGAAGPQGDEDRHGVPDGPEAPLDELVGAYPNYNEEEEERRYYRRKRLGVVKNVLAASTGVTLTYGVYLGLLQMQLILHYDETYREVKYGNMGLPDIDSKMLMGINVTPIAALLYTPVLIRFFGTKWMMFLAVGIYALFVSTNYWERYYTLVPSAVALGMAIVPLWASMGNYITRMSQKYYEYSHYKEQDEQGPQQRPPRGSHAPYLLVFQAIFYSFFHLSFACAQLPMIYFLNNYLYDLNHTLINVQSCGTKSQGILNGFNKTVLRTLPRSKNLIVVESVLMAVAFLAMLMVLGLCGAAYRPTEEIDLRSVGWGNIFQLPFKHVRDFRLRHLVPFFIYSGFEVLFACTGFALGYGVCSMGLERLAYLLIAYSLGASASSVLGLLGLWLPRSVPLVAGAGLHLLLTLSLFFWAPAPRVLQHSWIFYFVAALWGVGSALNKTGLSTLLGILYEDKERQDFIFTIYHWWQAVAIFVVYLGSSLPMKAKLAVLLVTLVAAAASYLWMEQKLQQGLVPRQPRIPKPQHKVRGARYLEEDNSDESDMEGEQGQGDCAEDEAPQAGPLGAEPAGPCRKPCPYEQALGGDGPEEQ", "test": "co-IP; HEK293T transiently transfected with AP-2µ-HA and FLAG tagged UNC93B1; lysates incubated with anti-FLAG matrix, eluted with FLAG peptide; immunoblot with anti-HA or anti-FLAG"}, "[2]": {"molecular_target": "T2, UNC93B1-WT, C-terminal 3x FLAG tag (HEK293T) (mouse) (UniProt Q8VCW4)", "T2 sequence": "T1 sequence with A539Y", "test": "co-IP; HEK293T transiently transfected with AP-2µ-HA and FLAG tagged UNC93B1; lysates incubated with anti-FLAG matrix, eluted with FLAG peptide; immunoblot with anti-HA or anti-FLAG"}},
  "note": "Substitutions are numbered along the chain they refer to. No constants are given. Whether binding was seen depends on the method and setting. Binding seen in cells or lysates may run through a third protein. Some binding calls cover weakened binding; strength is not graded here. Sequences can lack the tags named with a protein.",
  "data": [
    {"substance": "Rat AP-2μ-HA (internal HA tag) (from UniProt P84092 1-435)", "values": [
      {"measurement": "binding", "setting": "[1]", "result": "no binding"},
      {"measurement": "binding", "setting": "[2]", "result": "binds"}
    ]}
  ]
}
